# Source: PMC12820563
# This is one part of the list. The list includes weakly bound sequences.
# Target: T1, MBP-FoxP3dN (UniProt Q99JB6)
# T1 sequence: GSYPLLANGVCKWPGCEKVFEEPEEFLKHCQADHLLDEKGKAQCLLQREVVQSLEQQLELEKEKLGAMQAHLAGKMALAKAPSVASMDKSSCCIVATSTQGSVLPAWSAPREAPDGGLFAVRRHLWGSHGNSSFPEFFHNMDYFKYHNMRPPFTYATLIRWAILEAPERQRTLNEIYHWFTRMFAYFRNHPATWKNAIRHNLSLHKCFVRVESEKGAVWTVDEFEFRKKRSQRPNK
# Assay: PD-seq (MBP pull-down with sequencing)
# Conditions: 20 mM Tris-HCl pH 7.5, 100 mM NaCl, 1.5 mM MgCl2, 0.4 uM protein, 0.1 uM dsDNA library, 30 min, room temperature, amylose pull-down; high values mean tight binding; double strand, one strand shown
row,Sequence,binding signal (RPM ratio (pull-down/input))
1,GATGATTGTTCTCCCAGCTGATGAATTGCGCCGTTCGAGTAAACAAATTTTCCTAATCTTTCTGTTCAAGCGCCATCTAC,2.08
2,GATGATTGTTCTCCCAGCTGATGAATTTGCTGCCTCGAGTAAACAAATTTTCCTAATCTTTCTGTTCAAGCGCCATCTAC,3.66
3,GATGATTGTTCTCCCAGCTGATGAATTCACTGCATCGAGTAAACAAATTTTCCTAATCTTTCTGTTCAAGCGCCATCTAC,0.871
4,GATGATTGTTCTCCCAGCTGATGAATTGGACGAATCGAGTAAACAAATTTTCCTAATCTTTCTGTTCAAGCGCCATCTAC,0.195
5,GATGATTGTTCTCCCAGCTGATGAATTGAGCAATTCGAGTAAACAAATTTTCCTAATCTTTCTGTTCAAGCGCCATCTAC,3.79
6,GATGATTGTTCTCCCAGCTGATGAATTCTAACTCTCGAGTAAACAAATTTTCCTAATCTTTCTGTTCAAGCGCCATCTAC,0.418
7,GATGATTGTTCTCCCAGCTGATGAATTGCCTTGCTCGAGTAAACAAATTTTCCTAATCTTTCTGTTCAAGCGCCATCTAC,0.647
8,GATGATTGTTCTCCCAGCTGATGAATTATCGGCTTCGAGTAAACAAATTTTCCTAATCTTTCTGTTCAAGCGCCATCTAC,0.296
9,GATGATTGTTCTCCCAGCTGATGAATTACTAAGTTCGAGTAAACAAATTTTCCTAATCTTTCTGTTCAAGCGCCATCTAC,0.312
10,GATGATTGTTCTCCCAGCTGATGAATTACCAGGCTCGAGTAAACAAATTTTCCTAATCTTTCTGTTCAAGCGCCATCTAC,0.357
11,GATGATTGTTCTCCCAGCTGATGAATTTAAAGATTCGAGTAAACAAATTTTCCTAATCTTTCTGTTCAAGCGCCATCTAC,0.274
12,GATGATTGTTCTCCCAGCTGATGAATTTTTGTTATCGAGTAAACAAATTTTCCTAATCTTTCTGTTCAAGCGCCATCTAC,2.29
13,GATGATTGTTCTCCCAGCTGATGAATTGTGTGGATCGAGTAAACAAATTTTCCTAATCTTTCTGTTCAAGCGCCATCTAC,2.21
14,GATGATTGTTCTCCCAGCTGATGAATTCATTCTATCGAGTAAACAAATTTTCCTAATCTTTCTGTTCAAGCGCCATCTAC,0.283
15,GATGATTGTTCTCCCAGCTGATGAATTCATCCTGTCGAGTAAACAAATTTTCCTAATCTTTCTGTTCAAGCGCCATCTAC,0.419
16,GATGATTGTTCTCCCAGCTGATGAATTCTTAACGTCGAGTAAACAAATTTTCCTAATCTTTCTGTTCAAGCGCCATCTAC,0.28
17,GATGATTGTTCTCCCAGCTGATGAATTACGACCATCGAGTAAACAAATTTTCCTAATCTTTCTGTTCAAGCGCCATCTAC,0.605
18,GATGATTGTTCTCCCAGCTGATGAATTGCTTTTGTCGAGTAAACAAATTTTCCTAATCTTTCTGTTCAAGCGCCATCTAC,1.51
19,GATGATTGTTCTCCCAGCTGATGAATTTGCCAGATCGAGTAAACAAATTTTCCTAATCTTTCTGTTCAAGCGCCATCTAC,0.316
20,GATGATTGTTCTCCCAGCTGATGAATTCGCTCATTCGAGTAAACAAATTTTCCTAATCTTTCTGTTCAAGCGCCATCTAC,0.414

row,Sequence,binding signal (RPM ratio (pull-down/input))
1,GATGATTGTTCTCCCAGCTGATGAATTGGTGTCATCGAGTAAACAAATTTTCCTAATCTTTCTGTTCAAGCGCCATCTAC,1.22
2,GATGATTGTTCTCCCAGCTGATGAATTGATATGCTCGAGTAAACAAATTTTCCTAATCTTTCTGTTCAAGCGCCATCTAC,0.879
3,GATGATTGTTCTCCCAGCTGATGAATTCTGCATCTCGAGTAAACAAATTTTCCTAATCTTTCTGTTCAAGCGCCATCTAC,6.75
4,GATGATTGTTCTCCCAGCTGATGAATTCTTGTGGTCGAGTAAACAAATTTTCCTAATCTTTCTGTTCAAGCGCCATCTAC,0.428
5,GATGATTGTTCTCCCAGCTGATGAATTGCAGAAATCGAGTAAACAAATTTTCCTAATCTTTCTGTTCAAGCGCCATCTAC,0.529
6,GATGATTGTTCTCCCAGCTGATGAATTGTGAACCTCGAGTAAACAAATTTTCCTAATCTTTCTGTTCAAGCGCCATCTAC,0.516
7,GATGATTGTTCTCCCAGCTGATGAATTAGGCGATTCGAGTAAACAAATTTTCCTAATCTTTCTGTTCAAGCGCCATCTAC,1.08
8,GATGATTGTTCTCCCAGCTGATGAATTAGAGAGGTCGAGTAAACAAATTTTCCTAATCTTTCTGTTCAAGCGCCATCTAC,0.206
9,GATGATTGTTCTCCCAGCTGATGAATTCCTAGGCTCGAGTAAACAAATTTTCCTAATCTTTCTGTTCAAGCGCCATCTAC,0.188
10,GATGATTGTTCTCCCAGCTGATGAATTAAAGATATCGAGTAAACAAATTTTCCTAATCTTTCTGTTCAAGCGCCATCTAC,0.318
11,GATGATTGTTCTCCCAGCTGATGAATTACGATATTCGAGTAAACAAATTTTCCTAATCTTTCTGTTCAAGCGCCATCTAC,1.07
12,GATGATTGTTCTCCCAGCTGATGAATTTGTGTTGTCGAGTAAACAAATTTTCCTAATCTTTCTGTTCAAGCGCCATCTAC,6.27
13,GATGATTGTTCTCCCAGCTGATGAATTCTCAGACTCGAGTAAACAAATTTTCCTAATCTTTCTGTTCAAGCGCCATCTAC,0.193
14,GATGATTGTTCTCCCAGCTGATGAATTAAATCACTCGAGTAAACAAATTTTCCTAATCTTTCTGTTCAAGCGCCATCTAC,0.508
15,GATGATTGTTCTCCCAGCTGATGAATTGATACGATCGAGTAAACAAATTTTCCTAATCTTTCTGTTCAAGCGCCATCTAC,0.981
16,GATGATTGTTCTCCCAGCTGATGAATTATTGCCTTCGAGTAAACAAATTTTCCTAATCTTTCTGTTCAAGCGCCATCTAC,3.08
17,GATGATTGTTCTCCCAGCTGATGAATTGGCGCCCTCGAGTAAACAAATTTTCCTAATCTTTCTGTTCAAGCGCCATCTAC,0.628
18,GATGATTGTTCTCCCAGCTGATGAATTGATGGTGTCGAGTAAACAAATTTTCCTAATCTTTCTGTTCAAGCGCCATCTAC,1.19
19,GATGATTGTTCTCCCAGCTGATGAATTACTTCCTTCGAGTAAACAAATTTTCCTAATCTTTCTGTTCAAGCGCCATCTAC,0.261
20,GATGATTGTTCTCCCAGCTGATGAATTCTGCTCATCGAGTAAACAAATTTTCCTAATCTTTCTGTTCAAGCGCCATCTAC,0.455
